Experimental data as given in the supplement of paper PMC11417369.
This is one part of the list.

test system: PfSIP2 AP2 domain 1 (GST-tagged); assay: gcPBM binding intensity (ln(normalized median fluorescence intensity)); higher = stronger DNA binding
Method in brief: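 The highest Masliner-normalised natural-log median intensity across replicate spots of either probe orientation is reported as binding intensity. GST-tagged P. falciparum DNA-binding domains expressed in E. coli were applied for 1 h to an Agilent 4 × 180k array of primer-extended double-stranded 36-bp intergenic genomic probes plus negative controls, and bound protein was detected with Alexa488 anti-GST antibody and scanned at 488 nm.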

| Sequence | gcPBM binding intensity (ln) |
| --- | --- |
| ATATAAAAAAAATTTAGTACATATATATATATATAT [XGTACX_site8635] | 9.47 |
| AAAAAAATAATTAACACACACATGTATATCTATATA [CACACA_site3139] | 6.77 |
| TATATATATATATTATGTACTCATTTATTATCTTTT [XGTACX_site8051] | 9.5 |
| ATATGATTTGGATGTAGTACATATTTTTTTATGTTT [XGTACX_site1929] | 6.96 |
| AACCAAATTTCACCATGTACATATTGATAAATATAT [XGTACX_site1374] | 7.14 |
| GCACCAAAAAAAAGACGTACAGTTATATTAAAATAG [XGTACX_site8926] | 7.89 |
| AAATGAACAAGTGGCACACACACATTCTAACTAATT [CACACA_site3203] | 6.93 |
| TGATTATCCTTCAGGAGTACATATAATATAATATAT [XGTACX_site1479] | 6.95 |
| AATGAAAAGAAATAATAAATAAATGATGACCAGCTG [GTGCAC_negctrl_site398] | 6.76 |
| ATATATATATGAATCACACACAAAAAATATAGAGAT [CACACA_site3913] | 8.78 |
| TTATAAAGAAAAAATTGCTTTAAAAGAAAGATTACA [CACACA_negctrl_site960] | 6.51 |
| AAAAACAAAATTTGGAGTACAGTTATAATATTATTA [XGTACX_site5245] | 7.18 |
| AATGAACAGACGAGCACACACACACCCATATATATA [CACACA_site1018] | 7.58 |
| TAATGTATTATTTAATGTACTTAAAAAATAAATAAA [XGTACX_site3296] | 6.96 |
| ACCTTTAATAAATACACACACATAAAAAAAATATAT [CACACA_site5086] | 7.94 |
| TATTATATGAATAATTGTACGAAATTTAAAAGACAA [XGTACX_site7558] | 7.36 |
| GGGGAGCTATCTCCTGCACACACAATTTTTTTTTTT [CACACA_site8703] | 7.45 |
| CACAAATATATACATACACACATATATACGCATATA [CACACA_site395] | 7.29 |
| ATATATTCATTTTTATGTACGTAAATTGTAAATTGG [XGTACX_site8242] | 7.05 |
| AAAATAATAATAAAAAGTACATGTGTATATAATAAA [XGTACX_site754] | 7.27 |
| TGCATTATTTTATGAAGTACATATGAACAAAAAATT [XGTACX_site2185] | 7.11 |
| AAAGAAGGTAAACACACACACACACCGACAAAAAAA [CACACA_site9255] | 7.02 |

| Sequence | gcPBM binding intensity (ln) |
| --- | --- |
| AAATTATCCAAAAATTGTACTTAAAACAACATAAAA [XGTACX_site6238] | 6.92 |
| ACCATTTGTAGGTAAACACACATTATTCTTAATATC [CACACA_site5453] | 7 |
| TTTCTCTTATTCCAATCTATAATAAGTATCAATATT [CACACA_negctrl_site179] | 6.91 |
| AATATTAAACAAATGAAAAAAAAATATATATTATAT [CACACA_negctrl_site742] | 6.97 |
| TATGTTTTTCGGTATGCATGCATATGCTTAATAATA [TGCATGCA_site184] | 7.13 |
| AAAATAACACAAATGGGTACATATTATATTAAATAA [XGTACX_site7027] | 6.86 |
| AATATATATATGATTATATATATATATATATATATA [GTGCAC_negctrl_site290] | 9.18 |
| TTTAATTAAAATATATGTACATATATATATATATAT [XGTACX_site4517] | 9.11 |
| GGAGAAAAAAAAAAAAAACACACGGTACATTCAAAG [CACACA_site1503] | 6.81 |
| TTTTTTTCGTATATTACACACTATATATAGAAATTA [CACACA_site298] | 7.05 |
| TTATTAAAGGAAAAATGTACATATAAATGAATATGT [XGTACX_site23] | 7.07 |
| AAAAAATGTAAATATAAACAACCAAAGGGGGTATAC [GTGCAC_negctrl_site465] | 6.99 |
| TACGTGAAGTTATATACACACATAAATATGTCTGTA [CACACA_site7463] | 6.68 |
| ATAATATTTTATGGTTGTACTTTTAGTTCTTTTTTT [XGTACX_site5756] | 6.77 |
| ATTAAATATATTTTGCGTACACAAAAAAATACGTTC [XGTACX_site3862] | 7.38 |
| TTAAAGTATAACTGTACATGCGAGTAAAAGAATGAC [TGCATGCA_site899] | 7.82 |
| GAAAAAAAACACATTGTGCACTTTTCCTTAAGTATA [GTGCAC_site9475] | 9.56 |
| AAAAAAAAAAAGCACACACACATATGCGTATATATA [CACACA_site954] | 7.05 |
| TTAAGAAACAAAGAAAGTACACAACATAATATAGAA [XGTACX_site477] | 7.26 |
| TTAATAATAAAAAGGAGTACACTAATATACTATAAA [XGTACX_site2346] | 7.25 |
| ATATAATATATATATAAACACACAAAAAAAATTATA [CACACA_site8434] | 7.05 |
| AATAAAATCATCTATACACACAAAAAAAATAAGAAA [CACACA_site2101] | 6.8 |

| Sequence | gcPBM binding intensity (ln) |
| --- | --- |
| AATAACCACGGACACACACACATATATATATATATA [CACACA_site5873] | 9.39 |
| TACAACCTTATAATTAGTACTTAGTTATGCTGTAAA [XGTACX_site6052] | 6.68 |
| TTTATTTGTGCATATACACACTTAAATATGTTTATT [CACACA_site7772] | 7.65 |
| TTTAATTTTTTTTATAGTACATAAAAAATAAAAAAA [XGTACX_site5631] | 6.82 |
| ATTATAATACTTTGTATGCACTAATCAATTATTAAA | 8.25 |
| TTTGTTATGGTTTTCTCACACATATATATATATATA [CACACA_site4617] | 9.58 |
| ACATAAAATTGGAGCAAACACACAAGGTTGAAATTA [CACACA_site505] | 6.85 |
| CCGATATAATGGAAAACACACAAAAGATATTTATAT [CACACA_site7293] | 6.8 |
| CTGTAAAAAATATAAACACACATAGAAATATATAAA [CACACA_site340] | 6.98 |
| CCTCATAAGTTCTTATGTACGTATTGTTCACCTTTA [XGTACX_site6640] | 6.87 |
| GAATTATAAATTATAGTGCATAAAATTATGGCATAA [GTGCAC_site9938] | 8.52 |
| TCAAAACATTATTCCATACACACCATACTTTTTAAT [CACACA_site2770] | 7.14 |
| TTGAATTATAAGAATAAACACACAAGCTTAAAAAAA [CACACA_site8318] | 6.73 |
| TATTTAAATTTGTATAATGGACGAATTATATAGAAA [GTGCAC_negctrl_site650] | 7.03 |
| CCCACAGACGGACACACACACATATATATATATATA [CACACA_site4351] | 9.4 |
| TAAAAAATAAAATACACACACATATATATATATATA [CACACA_site1323] | 9.38 |
| GAGGGAAAAAATAATCGTACAAAGAAAAAAAAAAAT [XGTACX_site7361] | 6.98 |
| TATATTCTTTTTTTAACACACAAAAAAAATAAAATA [CACACA_site1898] | 7.16 |
| AAAAAAATTAAAGATTGTACTTGATTTTTCATTTTA [XGTACX_site6685] | 6.69 |
| AAAGAATTGTATAAAAGTACATATTTGTTTGTTTTA [XGTACX_site7380] | 6.85 |
| TTTTTTTCATAAATTAGGTAATGTCGCAGGGGGACA [TGCATGCA_negctrl_site556] | 7.96 |
| CTTTAATATATTTAAGTGCAAAACTAATATGTAAAG | 8.54 |

| Sequence | gcPBM binding intensity (ln) |
| --- | --- |
| TATATATTATATATATGTACTTATTCATATATATAA [XGTACX_site3860] | 7.22 |
| AAAGAAAAAGAAAAAGAAAAAATAAAATAAAATAAA [CACACA_negctrl_site872] | 6.64 |
| TATTTAAAAACAAAAAGTACTAATATATATTTATAC [XGTACX_site1422] | 6.96 |
| GACTGAACAACATAATGTACATTTATAAGTATATAT [XGTACX_site3813] | 7.15 |
| AGTAGTATGGAGAAAAGTACATAGTATCTGATAACC [XGTACX_site2040] | 7.12 |
| TTTTCTATATAGTGTTGTACATTATTGTGTAAAAAT [XGTACX_site3223] | 7.11 |
| ATAAAATTGGAGCAAACACACAAGGTTGAAATTAAC [CACACA_site506] | 7.09 |
| ATATTTTATACTTGCACACAAAATATATTAAAATGG [CACACA_site5139] | 7.33 |
| TTATGTTGTAAATGCACACATACAAATACATATACA [CACACA_site1368] | 7.35 |
| TACAATATAAAATACACACGCACACCGAAAAAAAAA [CACACA_site5865] | 7.24 |
| AAGAAAAAAAAGATAATAATAATAATAATAAAATGA [TGCATGCA_negctrl_site398] | 6.82 |
| ATTTATTAAAAGAAATGTACAGAAAATGTTTGGAAT [XGTACX_site7187] | 7.21 |
| ATTTAATATCACAATATATTTTTTACCCTTATCAGC [CACACA_negctrl_site491] | 6.95 |
| TATATGGTATGTATTACACACATATCACATATATAT [CACACA_site3045] | 6.96 |
| TGGTAAATTGAGAATCGTACATTAAAAAACATAAAA [XGTACX_site3253] | 7.05 |
| GGAATGGTACATGATACACACACGCACATATAAATA [CACACA_site7581] | 7.04 |
| ATAAAACAAGCAAATCGTACAAAAGGATAATATATA [XGTACX_site5592] | 6.9 |
| ATGTATGGTTTATATGTTCATTTGTTCACCTATTTA [CACACA_negctrl_site1533] | 6.89 |
| AAAAAAAAAAAAAACACACACACACCCATACCCATA [CACACA_site5577] | 7.41 |
| ATATATATTTAAGAGGGTACAAAAATTTATGAGCAT [XGTACX_site6156] | 7.18 |
| TTAGGTAGAAAAAAGACACACACATTATATATATAT [CACACA_site8016] | 8.8 |
| TCTTTGGTAATATATATGTATAAATATAAATATATA [CACACA_negctrl_site1566] | 6.99 |
